# From PubChem BioAssay AID624171 (National Center for Advancing Translational Sciences (NCATS), 2012)
# Hit rate of the full screen: of about 410,000 compounds, about 1,200 (0.29%) were called active. Inconclusive means that the source gave no clear call. Such entries were picked first, then a sample of the others. Calls come from the whole dose curve; as a rule, active = well fitted activation curve with a large enough effect; inconclusive = small, poorly fitted or top-dose-only effect; inactive = flat fitted curve, though single readings scatter. A potency beside an inconclusive call is a rough fit, not a confirmed value.
# Experiment: qHTS of Nrf2 Activators; note: nearly all actives have a fitted effect of over 65% in size; for activation: % of control where 0% means no effect
# Settings: AREc32 ARE-luciferase reporter (MCF7-derived line), luminescence, 24 h; activation: at 46.1 µM (top of the series)
# Summary of the method: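 Cells of the AREc32 ARE-luciferase line are plated in OPTI-MEM containing 5% FBS and left overnight at 37 deg C. Compounds are pinned in, incubation continues 24 hr, and firefly luciferase signal is then measured.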
# Potency is the fitted concentration of half-maximal effect; tags give direction and shape of the fitted curve.
Compound,activation,Potency
COc1ccc(-c2cc(-c3ccccc3O)[nH]n2)cc1OC,inactive: 11.4%,–
CC(=O)Oc1ccc(OC(C)=O)c2c1C1C=CC2CC1,–,"inconclusive: 11.2 µM [activator, partial curve, poor fit]"
Cc1cccc(Nc2nc(-c3ccc(O)cc3O)cs2)n1,–,"inconclusive: 14.1 µM [activator, single point]"
Cc1ccc(/C=C2\SC(=S)N(CC3CCCO3)C2=O)o1 (stereo not given),–,"inconclusive: 35.5 µM [activator, single point]"
Cc1nc(N2CCCC2)c2c(C(=O)N3CCN(c4ccc(F)cc4)CC3)c(C)oc2n1,inactive: 0.59%,–
O=C(O)CC/C(=N\Nc1ccccc1[N+](=O)[O-])c1cccs1,–,"inconclusive: 14.1 µM [activator, single point]"
O=C(/C=C/c1ccco1)Nc1ccc2nc3n(c(=O)c2c1)CCCC3,–,"inconclusive: 10 µM [activator, partial curve, poor fit]"
O=C(CCN1C(=O)/C(=C\c2ccccc2F)SC1=S)N1CCCCC1,inactive: 5.72%,–
O=c1oc2ccccc2c(Nc2ccccc2)c1[N+](=O)[O-],–,"inconclusive: 28.2 µM [activator, single point]"
COc1ccc(-n2nnc3c(SCC(=O)NCC4CCCO4)ncnc32)cc1 (stereo not given),–,"inconclusive: 31.6 µM [activator, single point]"
COc1cccc(CNC(=O)Cn2c(=O)n3nc(-c4cccc(F)c4)nc3c3ccccc32)c1,–,"inconclusive: 11.2 µM [activator, partial curve]"
Cn1c(NC(=O)c2cccc(C(F)(F)F)c2)cc(=O)n(C)c1=O,–,"inconclusive: 12.6 µM [activator, partial curve]"
C/C(=N\NC(=O)C1COc2ccccc2O1)c1cccs1 (stereo not given),–,"inconclusive: 17.8 µM [activator, single point]"
C[C@H](NC(=O)c1nc[nH]c1C(=O)N[C@@H](CCCCNC(=O)OC(C)(C)C)C(=O)OC(C)(C)C)C(=O)OC(C)(C)C,inactive: 0.311%,–
O=C(Nc1cc(C(F)(F)F)ccc1-n1cncn1)c1ccc([N+](=O)[O-])o1,–,"inconclusive: 10 µM [activator, partial curve]"
CC1(C)CC(Nc2ccc(Nc3ccccc3)cc2)CC(C)(C)N1,–,"inconclusive: 22.4 µM [activator, single point]"
O=C(c1cc(=O)c2ccccc2o1)N1CCN(c2ccccc2F)CC1,–,"inconclusive: 11.2 µM [activator, partial curve]"
CCS(=O)(=O)c1ncc(Cl)c(C(=O)Nc2ccc(S(=O)(=O)N3CCC(C)CC3)cc2)n1,–,"inconclusive: 3.98 µM [activator, single point]"
COc1ccc(C(=O)COC(=O)CCNS(=O)(=O)c2ccccc2)c(OC)c1,inactive: 0.307%,–
CCCN(CCC)C(=O)Cn1nnc2sc(-c3ccccc3)cc2c1=O,–,"inconclusive: 17.8 µM [activator, partial curve, poor fit]"
CC1CCN(c2ccc(NC(=S)NC(=O)c3ccc(-c4cccc([N+](=O)[O-])c4)o3)cc2)CC1,inactive: 3.02%,–
CSc1ccc(/C=C(\C#N)C(=O)NC2CCCCC2C)cc1 (stereo not given),–,"inconclusive: 25.1 µM [activator, partial curve, poor fit]"
c1coc(CNc2nc(-c3cccs3)cs2)c1,–,"inconclusive: 12.6 µM [activator, single point]"
CCc1sc(-c2ccccc2)nc1C(=O)OC,–,"inconclusive: 12.6 µM [activator, partial curve, poor fit]"

Compound,activation,Potency
O=C(CCl)NCCCN(C(=O)C(Cl)Cl)c1ccc([N+](=O)[O-])cc1,–,active: 11.2 µM
COc1cccc2cc(C(=O)C3=C(O)C(=O)N(c4cc(C)on4)C3c3cccs3)oc12 (stereo not given),–,"inconclusive: 12.6 µM [activator, single point]"
CC(/C=N/n1c(-c2ccncc2)n[nH]c1=S)=C\c1ccco1,–,active: 7.08 µM
CC(c1ccccc1)N1CCN(C(=O)CCl)CC1 (stereo not given),–,"inconclusive: 20 µM [activator, single point]"
CCNc1ccc(-c2nc(-c3ccccn3)no2)cc1[N+](=O)[O-],inactive: 6.97%,–
COc1ccc(/C=C\C(=O)CC(O)(c2ccccc2)C(F)(F)F)cc1 (stereo not given),–,"inconclusive: 31.6 µM [activator, partial curve, poor fit]"
c1ccc(-c2cnc(-c3ccccc3)nn2)cc1,–,active: 2.82 µM
O=C(CC(Nc1ccc(Cl)cc1Cl)C(=O)O)c1ccccc1 (stereo not given),–,"inconclusive: 20 µM [activator, single point]"
CC(C)NC(=O)c1ccc(-n2c(-c3ccccc3)cc3c2CCCC3)cc1,–,"inconclusive: 11.2 µM [activator, partial curve, poor fit]"
COc1cc(/C=N/Nc2nc3ccccc3s2)ccc1OC(=O)c1ccccc1F,–,"inconclusive: 5.62 µM [activator, full curve, poor fit]"
O=C(c1cc([N+](=O)[O-])ccc1Cl)N1CCN(c2ccc([N+](=O)[O-])cc2)CC1,inactive: 0.579%,–
COc1ccc(CNS(=O)(=O)c2ccc3c(c2)CC(C)N3C(=O)C2CC2)cc1 (stereo not given),inactive: -0.122%,–
COc1ccc(-n2c3c(c(=O)[nH]c2=O)C(C(F)(F)F)(C(F)(F)F)N=C(CC(C)C)N3)cc1,inactive: 2.9%,–
Cc1ccc(-c2csc3ncnc(N4CCN(S(=O)(=O)c5ccc(C#N)cc5)CC4)c23)cc1,inactive: -0.147%,–
O=C(CN1C(=O)C2C3c4ccccc4C(c4ccccc43)C2C1=O)Nc1cccc(C(=O)O)c1 (stereo not given),inactive: 0.738%,–
Cc1cccc2sc(NNC(=O)c3cc(=O)c4ccccc4o3)nc12,inactive: 13.8%,–
Cc1cccc(Cn2nc(C)n3c(cc4cc(C)ccc43)c2=O)c1,inactive: -0.412%,–
COc1ccc(Nc2nnc(SCC(=O)c3cc4ccccc4o3)s2)cc1,–,"inconclusive: 10 µM [activator, partial curve]"
Cc1ccc(NC2=C(CC(=O)O)C(c3ccc(F)cc3)N(c3ccc(C)cc3)C2=O)cc1 (stereo not given),–,"inconclusive: 35.5 µM [activator, single point]"
Cc1ccc(N/N=C2\CCS(=O)(=O)c3sccc32)cc1,–,"inconclusive: 12.6 µM [activator, partial curve]"
Cc1ccc(Nc2nc(Cl)c(C=O)s2)cc1,–,"inconclusive: 17.8 µM [activator, partial curve, poor fit]"
Cc1csc(N/N=C/c2ccccc2F)n1,–,"inconclusive: 10 µM [activator, partial curve]"
Cc1cccnc1NC(=S)NC(=O)/C=C/c1ccco1,–,"inconclusive: 20 µM [activator, partial curve, poor fit]"
COc1ccc(CN2CN(C3CCCC3)CSC2=S)cc1,–,"inconclusive: 22.4 µM [activator, single point]"

Compound,activation,Potency
Cc1ccc(Nc2c(-c3ccc(N4CCOCC4)cc3)nc3ncccn23)c(C)c1,–,inactive
O=C(Nc1ccc(F)c(Cl)c1)c1nsc(Cl)c1Cl,–,active: 3.16 µM
COc1cccc2c1C(=O)c1ccc3ccccc3c1C2=O,–,"inconclusive: 2.24 µM [activator, full curve, poor fit]"
O=C(COc1ccccc1Cl)Nc1ccc2c(c1)OCCO2,inactive: 8.39%,–
Cc1ccn2c(Nc3ccc(C(C)C)cc3)c(-c3ccsc3)nc2c1,inactive: 1.33%,–
Cc1ccnc2c1ccc1cccnc12,inactive: 17.9%,–
BrC(=C\c1ccccc1)/C=N/n1cnnc1,–,"inconclusive: 3.55 µM [activator, partial curve, poor fit]"
O=C(C1=C(O)/C(=C/c2ccc(O)cc2)CCC1)C(F)(F)F,–,"inconclusive: 28.2 µM [activator, single point]"
O=C(COc1ccc2ccc(=O)oc2c1)N1CCc2ccccc21,–,"inconclusive: 20 µM [activator, single point]"
O=C(C=Cc1ccco1)c1cc(Cl)ccc1O,–,"inconclusive: 15.8 µM [activator, partial curve, poor fit]"
CCN(c1ccccc1)S(=O)(=O)c1cc(C(=O)Nc2cccc(Cl)c2)ccc1F,inactive: 0.108%,–
Cc1cc(SCC(=O)OC/C(O)=C(\C#N)c2nc3ccccc3[nH]2)c(C)cc1Br,inactive: 12.7%,–
COc1ccc(C2=CC(c3ccco3)n3ncnc3N2)cc1 (stereo not given),–,"inconclusive: 2.82 µM [activator, full curve, poor fit]"
Cc1ccc(/C=C/C(=O)N2CC(C)CC(C)C2)o1 (stereo not given),–,"inconclusive: 22.4 µM [activator, single point]"
O=c1[nH]c(=O)c2cc([N+](=O)[O-])cc([N+](=O)[O-])c2[nH]1,–,"inconclusive: 20 µM [activator, single point]"
O=C(OCC1CCCO1)c1ccc2c(c1)N(Cc1c(F)cccc1Cl)C(=O)c1ccccc1S2(=O)=O (stereo not given),inactive: 0.197%,–
O=C1NCC(O)=C1C=Nc1ccccc1O,–,"inconclusive: 3.55 µM [activator, single point]"
c1ccc2c(-c3csc(-c4ccncc4)n3)c[nH]c2c1,–,"inconclusive: 2.24 µM [activator, full curve, poor fit]"
O=C(N/N=C/C(Br)=C\c1ccccc1)c1n[nH]c2c1CCC2,–,active: 14.1 µM
O=C(/C=C/Nc1ccccc1Oc1ccccc1)c1ccco1,–,"inconclusive: 14.1 µM [activator, partial curve, poor fit]"
Cc1cc(SCC(=O)c2cccs2)nc2ccccc12,–,"inconclusive: 10 µM [activator, partial curve]"
CC(c1nnc(Sc2nnnn2-c2ccccc2)n1-c1ccc(F)cc1)N(C)C (stereo not given),–,"inconclusive: 15.8 µM [activator, single point]"
